# Reference: PMC9722908
# The chains behind the UniProt entries cited, without tags or fusion partners. Where a name states a change or a piece, a line headed by the entry shows the natural chain unless it says otherwise.
# UniProt Q8IUC6: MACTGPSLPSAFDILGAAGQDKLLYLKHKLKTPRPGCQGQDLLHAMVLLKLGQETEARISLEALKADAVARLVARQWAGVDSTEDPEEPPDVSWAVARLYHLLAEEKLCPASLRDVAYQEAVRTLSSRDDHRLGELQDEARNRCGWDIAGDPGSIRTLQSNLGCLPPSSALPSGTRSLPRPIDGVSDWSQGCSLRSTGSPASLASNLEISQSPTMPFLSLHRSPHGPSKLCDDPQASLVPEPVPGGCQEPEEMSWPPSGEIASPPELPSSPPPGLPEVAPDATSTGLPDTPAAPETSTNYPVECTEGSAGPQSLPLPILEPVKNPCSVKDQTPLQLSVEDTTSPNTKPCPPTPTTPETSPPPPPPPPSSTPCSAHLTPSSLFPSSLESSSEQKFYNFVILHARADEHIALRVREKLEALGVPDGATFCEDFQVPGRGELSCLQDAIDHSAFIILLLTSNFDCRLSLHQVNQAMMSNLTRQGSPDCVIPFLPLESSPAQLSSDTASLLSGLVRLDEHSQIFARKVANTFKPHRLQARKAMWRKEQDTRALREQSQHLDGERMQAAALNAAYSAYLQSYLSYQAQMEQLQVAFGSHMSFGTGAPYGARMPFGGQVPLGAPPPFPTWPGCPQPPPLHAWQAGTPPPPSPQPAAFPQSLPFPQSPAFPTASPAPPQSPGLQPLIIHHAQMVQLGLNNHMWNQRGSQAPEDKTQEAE
# UniProt P06803: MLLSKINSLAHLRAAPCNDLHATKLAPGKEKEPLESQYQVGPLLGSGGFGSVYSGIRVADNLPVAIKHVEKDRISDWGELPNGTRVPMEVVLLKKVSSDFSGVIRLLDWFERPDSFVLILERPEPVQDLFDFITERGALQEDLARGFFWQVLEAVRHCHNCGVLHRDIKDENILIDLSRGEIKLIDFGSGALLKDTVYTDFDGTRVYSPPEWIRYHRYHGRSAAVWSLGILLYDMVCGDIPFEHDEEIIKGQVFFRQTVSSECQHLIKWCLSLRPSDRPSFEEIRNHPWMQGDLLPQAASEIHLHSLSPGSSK
# Like-named read-outs stand apart in the source and are kept apart here. No constants are given. Whether binding was seen depends on the method and setting. Binding seen in cells or lysates may run through a third protein. Some results given as binding are weak or reduced against the parent protein; the word gives no strength. For part of these data: Sequences can lack the tags named with a protein.
# T1: WT GST-fused human IRF3 (human) (UniProt Q14653)
# T1 sequence: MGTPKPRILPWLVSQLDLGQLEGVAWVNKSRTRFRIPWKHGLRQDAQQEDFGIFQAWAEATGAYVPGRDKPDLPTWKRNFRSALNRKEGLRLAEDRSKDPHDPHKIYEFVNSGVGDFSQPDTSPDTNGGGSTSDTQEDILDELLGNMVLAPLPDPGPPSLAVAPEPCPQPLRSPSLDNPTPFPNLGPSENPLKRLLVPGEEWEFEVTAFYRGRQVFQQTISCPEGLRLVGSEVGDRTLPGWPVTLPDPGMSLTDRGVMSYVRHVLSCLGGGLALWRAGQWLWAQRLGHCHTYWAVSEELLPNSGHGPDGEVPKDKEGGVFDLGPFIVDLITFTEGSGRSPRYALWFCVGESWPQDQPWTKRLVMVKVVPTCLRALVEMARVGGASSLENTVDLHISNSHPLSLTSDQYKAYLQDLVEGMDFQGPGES
# T2: Flag-tagged human TBK1 (K38A) (human) (UniProt Q9UHD2)
# T2 sequence: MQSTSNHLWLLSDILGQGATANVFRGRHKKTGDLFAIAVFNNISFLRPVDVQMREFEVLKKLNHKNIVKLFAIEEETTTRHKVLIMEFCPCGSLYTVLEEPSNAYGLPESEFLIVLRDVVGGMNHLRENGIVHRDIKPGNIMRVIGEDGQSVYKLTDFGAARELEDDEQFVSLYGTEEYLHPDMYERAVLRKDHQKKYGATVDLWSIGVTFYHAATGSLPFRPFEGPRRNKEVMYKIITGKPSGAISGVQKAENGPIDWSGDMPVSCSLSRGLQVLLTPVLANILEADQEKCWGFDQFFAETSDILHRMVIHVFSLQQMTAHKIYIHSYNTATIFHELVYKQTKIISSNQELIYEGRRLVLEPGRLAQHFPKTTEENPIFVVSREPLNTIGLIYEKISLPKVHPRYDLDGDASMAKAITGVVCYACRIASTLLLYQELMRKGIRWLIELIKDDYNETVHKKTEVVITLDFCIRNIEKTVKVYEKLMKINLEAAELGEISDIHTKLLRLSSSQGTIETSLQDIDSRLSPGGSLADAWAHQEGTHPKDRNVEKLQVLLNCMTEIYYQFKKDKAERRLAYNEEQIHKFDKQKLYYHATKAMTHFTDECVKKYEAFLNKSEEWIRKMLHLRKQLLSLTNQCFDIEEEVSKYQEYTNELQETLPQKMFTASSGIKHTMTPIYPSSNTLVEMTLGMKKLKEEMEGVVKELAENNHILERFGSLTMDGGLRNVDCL
# T3: Flag-tagged human WT TBK1 (human) (UniProt Q9UHD2)
# T3 sequence: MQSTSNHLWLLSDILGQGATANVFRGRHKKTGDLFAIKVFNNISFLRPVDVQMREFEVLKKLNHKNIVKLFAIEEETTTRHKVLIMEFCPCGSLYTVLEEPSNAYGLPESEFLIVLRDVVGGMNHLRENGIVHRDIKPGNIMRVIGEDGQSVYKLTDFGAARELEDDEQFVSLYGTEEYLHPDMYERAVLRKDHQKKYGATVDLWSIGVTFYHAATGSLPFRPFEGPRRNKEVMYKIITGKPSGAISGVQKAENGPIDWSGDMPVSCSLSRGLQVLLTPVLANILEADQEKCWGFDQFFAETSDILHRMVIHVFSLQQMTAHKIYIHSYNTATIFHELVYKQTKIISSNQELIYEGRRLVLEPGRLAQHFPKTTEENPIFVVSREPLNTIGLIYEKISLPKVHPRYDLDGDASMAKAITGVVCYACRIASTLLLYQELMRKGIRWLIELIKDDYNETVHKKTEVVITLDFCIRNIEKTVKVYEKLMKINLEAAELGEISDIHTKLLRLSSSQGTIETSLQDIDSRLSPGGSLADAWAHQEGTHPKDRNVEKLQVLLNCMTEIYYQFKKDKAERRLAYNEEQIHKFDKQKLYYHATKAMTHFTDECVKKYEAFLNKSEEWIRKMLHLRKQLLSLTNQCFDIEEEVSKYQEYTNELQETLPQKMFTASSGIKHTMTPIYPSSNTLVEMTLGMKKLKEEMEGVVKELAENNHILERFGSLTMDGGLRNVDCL
# T4: EGFP-IRF3 (human, WT) (human) (UniProt Q14653)
# T4 sequence: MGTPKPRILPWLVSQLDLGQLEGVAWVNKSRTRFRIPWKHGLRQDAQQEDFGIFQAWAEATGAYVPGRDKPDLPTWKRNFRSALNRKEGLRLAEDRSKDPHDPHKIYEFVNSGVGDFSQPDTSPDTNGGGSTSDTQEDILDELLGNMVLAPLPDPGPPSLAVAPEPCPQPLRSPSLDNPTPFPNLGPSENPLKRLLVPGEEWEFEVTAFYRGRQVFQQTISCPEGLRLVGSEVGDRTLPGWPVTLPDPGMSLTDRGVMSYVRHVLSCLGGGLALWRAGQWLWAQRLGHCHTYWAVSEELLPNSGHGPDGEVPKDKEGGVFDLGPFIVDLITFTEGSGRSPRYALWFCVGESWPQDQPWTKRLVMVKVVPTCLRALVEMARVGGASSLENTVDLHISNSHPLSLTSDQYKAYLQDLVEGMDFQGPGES
# T5: Flag-TRAF3 (murine) (murine) (UniProt Q60803)
# T5 sequence: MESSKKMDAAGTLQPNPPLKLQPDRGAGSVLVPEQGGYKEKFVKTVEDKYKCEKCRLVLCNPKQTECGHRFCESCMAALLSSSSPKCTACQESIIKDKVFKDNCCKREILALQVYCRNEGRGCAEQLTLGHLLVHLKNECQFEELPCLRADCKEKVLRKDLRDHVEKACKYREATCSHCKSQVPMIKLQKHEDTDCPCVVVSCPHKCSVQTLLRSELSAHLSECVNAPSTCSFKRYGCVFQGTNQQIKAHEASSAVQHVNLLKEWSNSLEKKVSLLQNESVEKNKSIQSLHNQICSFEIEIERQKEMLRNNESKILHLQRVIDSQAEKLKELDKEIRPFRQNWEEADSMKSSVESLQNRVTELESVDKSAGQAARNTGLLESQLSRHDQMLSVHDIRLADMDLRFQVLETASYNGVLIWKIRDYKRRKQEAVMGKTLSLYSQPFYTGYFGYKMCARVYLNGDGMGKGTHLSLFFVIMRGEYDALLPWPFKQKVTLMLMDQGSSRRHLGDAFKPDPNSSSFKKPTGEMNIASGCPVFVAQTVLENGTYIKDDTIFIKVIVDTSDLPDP
# T6: endogenous TBK1 of murine macrophages (mouse (endogenous in BMDMs and RAW264.7)) (UniProt Q9WUN2)
# T6 sequence: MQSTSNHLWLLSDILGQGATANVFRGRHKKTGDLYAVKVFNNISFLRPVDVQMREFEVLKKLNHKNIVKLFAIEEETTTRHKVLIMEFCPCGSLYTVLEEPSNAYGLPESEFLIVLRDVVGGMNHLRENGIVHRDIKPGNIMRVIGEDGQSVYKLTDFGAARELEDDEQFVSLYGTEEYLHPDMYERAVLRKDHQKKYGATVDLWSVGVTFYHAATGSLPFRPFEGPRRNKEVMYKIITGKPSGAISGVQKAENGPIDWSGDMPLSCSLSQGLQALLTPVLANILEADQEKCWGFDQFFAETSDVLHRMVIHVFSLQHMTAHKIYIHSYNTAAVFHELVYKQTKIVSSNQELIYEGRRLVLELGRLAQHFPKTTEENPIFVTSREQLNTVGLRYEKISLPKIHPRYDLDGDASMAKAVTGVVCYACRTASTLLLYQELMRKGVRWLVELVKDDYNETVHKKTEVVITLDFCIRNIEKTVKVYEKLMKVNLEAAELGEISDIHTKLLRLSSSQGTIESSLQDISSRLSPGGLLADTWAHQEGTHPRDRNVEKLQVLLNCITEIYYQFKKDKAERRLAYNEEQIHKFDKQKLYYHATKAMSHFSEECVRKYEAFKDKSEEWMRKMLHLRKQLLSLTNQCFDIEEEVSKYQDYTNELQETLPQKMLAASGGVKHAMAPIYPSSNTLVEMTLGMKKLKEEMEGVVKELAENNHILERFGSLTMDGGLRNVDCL
# B1: endogenous IRF3 of murine macrophages (protein, UniProt P70671 1-419)
# chain: METPKPRILPWLVSQLDLGQLEGVAWLDESRTRFRIPWKHGLRQDAQMADFGIFQAWAEASGAYTPGKDKPDVSTWKRNFRSALNRKEVLRLAADNSKDPYDPHKVYEFVTPGARDFVHLGASPDTNGKSSLPHSQENLPKLFDGLILGPLKDEGSSDLAIVSDPSQQLPSPNVNNFLNPAPQENPLKQLLAEEQWEFEVTAFYRGRQVFQQTLFCPGGLRLVGSTADMTLPWQPVTLPDPEGFLTDKLVKEYVGQVLKGLGNGLALWQAGQCLWAQRLGHSHAFWALGEELLPDSGRGPDGEVHKDKDGAVFDLRPFVADLIAFMEGSGHSPRYTLWFCMGEMWPQDQPWVKRLVMVKVVPTCLKELLEMAREGGASSLKTVDLHISNSQPISLTSDQYKAYLQDLVEDMDFQATGNI
# B2: EGFP-IRF3 (human, WT) (protein, UniProt Q14653 1-427)
# chain: MGTPKPRILPWLVSQLDLGQLEGVAWVNKSRTRFRIPWKHGLRQDAQQEDFGIFQAWAEATGAYVPGRDKPDLPTWKRNFRSALNRKEGLRLAEDRSKDPHDPHKIYEFVNSGVGDFSQPDTSPDTNGGGSTSDTQEDILDELLGNMVLAPLPDPGPPSLAVAPEPCPQPLRSPSLDNPTPFPNLGPSENPLKRLLVPGEEWEFEVTAFYRGRQVFQQTISCPEGLRLVGSEVGDRTLPGWPVTLPDPGMSLTDRGVMSYVRHVLSCLGGGLALWRAGQWLWAQRLGHCHTYWAVSEELLPNSGHGPDGEVPKDKEGGVFDLGPFIVDLITFTEGSGRSPRYALWFCVGESWPQDQPWTKRLVMVKVVPTCLRALVEMARVGGASSLENTVDLHISNSHPLSLTSDQYKAYLQDLVEGMDFQGPGES
# Legend:
# [1] = target: T1, WT GST-fused human IRF3 (human); experiment: pull-down; HEK293T cells co-transfected with GST-tagged IRF3 and Flag-tagged Pim1; lysates (20 mM HEPES pH 7.4, 150 mM NaCl, 150 mM KCl, 10 mM EDTA, 10% glycerol, 1% NP-40) incubated with glutathione-Sepharose 4B at 4 °C for 1 h, immunoblot
# [2] = target: T2, Flag-tagged human TBK1 (K38A) (human); experiment: co-IP; HEK293T cells transfected with differently tagged constructs; RIPA lysates incubated with tag-specific antibodies overnight at 4 °C, protein G Sepharose, immunoblot
# [3] = target: T3, Flag-tagged human WT TBK1 (human); experiment: as above
# [4] = target: T4, EGFP-IRF3 (human, WT) (human); experiment: as above
# [5] = target: Flag-tagged human TRIF (human) (UniProt Q8IUC6); experiment: as above
# [6] = target: T5, Flag-TRAF3 (murine) (murine); experiment: as above
# [7] = target: T6, endogenous TBK1 of murine macrophages (mouse (endogenous in BMDMs and RAW264.7)); experiment: co-IP; endogenous proteins; WT RAW264.7 cells treated with LPS (100 ng ml^-1), immunoprecipitation with an antibody against endogenous TBK1, immunoblot; complex seen 1 h after LPS
# [8] = target: T6, endogenous TBK1 of murine macrophages (mouse (endogenous in BMDMs and RAW264.7)); experiment: as above; remark: listed apart in the source
# [9] = target: Flag-tagged human TRIF (human) (UniProt Q8IUC6); experiment: co-IP; HEK293T cells transfected with differently tagged constructs; RIPA lysates incubated with tag-specific antibodies overnight at 4 °C, protein G Sepharose, immunoblot; remark: listed apart in the source
molecule,measurement,setting,value
Flag-tagged murine Pim1 K67M (from UniProt P06803 1-313) (enzyme),binding,[1],binds
HA-tagged murine Pim1 (from UniProt P06803 1-313),binding,[2],no binding
same,binding,[3],binds
same,binding,[4],binds
same,binding,[5],binds
same,binding,[6],binds
"Pim1S, endogenous in RAW264.7 cells (from UniProt P06803 1-313)",binding,[7],no binding
B1,binding,[8],binds
B2,binding,[9],binds
